Assay results as given in ChEMBL document CHEMBL4610118 (J Med Chem, 2020).

Tests used:
CDK9/cyclin T1 = CDK9/cyclin T1 (Homo sapiens, UniProt P50750)
CDK2/Cyclin A1 = CDK2/Cyclin A1 (Homo sapiens, UniProt P24941); test: biochemical
CDK7/Cyclin H/MNAT1 = CDK7/Cyclin H/MNAT1 (Homo sapiens, UniProt P50613)
[1] = target: Cyclin-dependent kinase 1/cyclin B1 (Homo sapiens, UniProt P06493)
CDK3/Cyclin E = CDK3/Cyclin E (Homo sapiens, UniProt Q00526)
[2] = target: Cyclin-dependent kinase 4/cyclin D1 (Homo sapiens, UniProt P11802)
[3] = target: Cyclin-dependent kinase 5/CDK5 activator 1 (Homo sapiens, UniProt Q00535)
[4] = target: Cyclin-dependent kinase 6 (Homo sapiens, UniProt Q00534)
CDK8/Cyclin C = CDK8/Cyclin C (Homo sapiens, UniProt P49336)
CDK12/Cyclin K = CDK12/Cyclin K (Homo sapiens, UniProt Q9NYV4)
[5] = target: Cyclin-dependent kinase 13/Cyclin-K (Homo sapiens, UniProt Q14004)
HAP1 [6] = test: cells; conditions: Homo sapiens, HAP1, 72 h
HAP1 [7] = test: cells; conditions: Homo sapiens, HAP1, 72 h; remark: listed apart in the source
HAP1 [8] = test: cells; conditions: Homo sapiens, HAP1, 72 h; remark: listed apart in the source
HAP1 [9] = test: cells; conditions: Homo sapiens, HAP1, 72 h; remark: listed apart in the source
in vivo [10] = conditions: Swiss albino, mouse, iv, 1 mg/kg
in vivo [11] = conditions: Swiss albino, mouse, iv, 1 mg/kg; remark: listed apart in the source
in vivo [12] = conditions: Swiss albino, mouse, iv, 1 mg/kg; remark: listed apart in the source
in vivo [13] = conditions: Swiss albino, mouse, iv, 1 mg/kg; remark: listed apart in the source
in vivo [14] = conditions: Swiss albino, mouse, iv, 1 mg/kg; remark: listed apart in the source
in vivo [15] = conditions: Swiss albino, mouse, ip, 5 mg/kg
in vivo [16] = conditions: Swiss albino, mouse, ip, 5 mg/kg; remark: listed apart in the source
in vivo [17] = conditions: Swiss albino, mouse, ip, 5 mg/kg; remark: listed apart in the source
in vivo [18] = conditions: Swiss albino, mouse, ip, 5 mg/kg; remark: listed apart in the source
in vivo [19] = conditions: Swiss albino, mouse, ip, 5 mg/kg; remark: listed apart in the source
in vivo [20] = conditions: Swiss albino, mouse, po, 10 mg/kg
in vivo [21] = conditions: Swiss albino, mouse, po, 10 mg/kg; remark: listed apart in the source
in vivo [22] = conditions: Swiss albino, mouse, po, 10 mg/kg; remark: listed apart in the source
in vivo [23] = conditions: Swiss albino, mouse, po, 10 mg/kg; remark: listed apart in the source
[24] = target: Cyclin-dependent kinase 14/Cyclin-Y (Homo sapiens, UniProt O94921); test: biochemical
[25] = target: Cyclin-Y/Cyclin-dependent kinase 16 (Homo sapiens, UniProt Q00536); test: biochemical

## C=CC(=O)Nc1ccc(C(=O)N2CCC[C@@H](Nc3ncc(SCc4ncc(C(C)(C)C)o4)s3)C2)cc1F
CDK9/cyclin T1
  IC50: 138 nM
CDK2/Cyclin A1
  IC50: 211 nM

## C=CC(=O)Nc1cccc(C(=O)Nc2ncc(SCc3ncc(C(C)(C)C)o3)s2)c1
CDK7/Cyclin H/MNAT1
  IC50: 1140 nM

## C=CC(=O)Nc1ccc(C(=O)N2CCC[C@@H](Nc3ncc(SCc4ncc(C(C)(C)C)o4)s3)C2)cc1C(F)(F)F
CDK9/cyclin T1
  IC50: 87.6 nM
CDK2/Cyclin A1
  IC50: 142 nM

## C=CC(=O)Nc1ccc(C(=O)N2CCCC(C(=O)Nc3ncc(SCc4ncc(C(C)(C)C)o4)s3)C2)cc1 (centres undefined)
CDK7/Cyclin H/MNAT1
  IC50: 99 nM

## C=CC(=O)Nc1ccc(C(=O)N2CCC[C@@H](Nc3ncc(Cl)c(SCc4ncc(C(C)(C)C)o4)n3)C2)cc1
CDK9/cyclin T1
  IC50: > 10000 nM
CDK2/Cyclin A1
  IC50: > 10000 nM

## C=CC(=O)Nc1ccc(C(=O)N2CC(Nc3ncc(SCc4ncc(C(C)(C)C)o4)s3)CC(F)(F)C2)cc1 (centres undefined)
CDK9/cyclin T1
  IC50: 1100 nM
CDK2/Cyclin A1
  IC50: 1480 nM

## C=CC(=O)Nc1ccc(C(=O)N2C[C@H](Nc3ncc(SCc4ncc(C(C)(C)C)o4)s3)CC[C@@H]2C)cc1
CDK9/cyclin T1
  IC50: 14.7 nM
CDK2/Cyclin A1
  IC50: 73.2 nM

## C=CC(=O)Nc1ccc(C(=O)N2CCC[C@@H](Nc3ncc(SCc4ncc(C(C)(C)C)o4)s3)C2)cc1
[1]
  IC50: 1470 nM
CDK3/Cyclin E
  IC50: 366 nM
[2]
  IC50: > 10000 nM
[3]
  IC50: 1130 nM
[4]
  IC50: > 10000 nM
CDK8/Cyclin C
  IC50: 4490 nM
CDK12/Cyclin K
  IC50: 25 nM
[5]
  IC50: 49 nM
HAP1 [6]
  IC50: 8.41 nM
HAP1 [7]
  IC50: 10.2 nM
HAP1 [8]
  IC50: 116 nM
HAP1 [9]
  IC50: 246 nM
In vivo [10]
  Cmax: 1310 ng/mL
In vivo [11]
  AUC(0-t): 162 ng·h/mL
In vivo [12]
  half-life: 10.2 min
In vivo [13]
  clearance: 102 mL/min/kg
In vivo [14]
  Vd: 0.73 L/kg
In vivo [15]
  Tmax: 4.8 min
In vivo [16]
  Cmax: 885 ng/mL
In vivo [17]
  AUC(0-t): 394 ng·h/mL
In vivo [18]
  half-life: 9 min
In vivo [19]
  bioavailability: 49%
In vivo [20]
  Tmax: 15 min
In vivo [21]
  Cmax: 556 ng/mL
In vivo [22]
  AUC(0-t): 412 ng·h/mL
In vivo [23]
  bioavailability: 25%
[24]
  IC50: 3130 nM
[25]
  IC50: 3830 nM

## C=CC(=O)Nc1ccc(C(=O)N2CCC[C@@H](Nc3ncc(SCc4ccncc4)s3)C2)cc1
CDK9/cyclin T1
  IC50: > 10000 nM
CDK2/Cyclin A1
  IC50: > 10000 nM

## C=CC(=O)N1CCC(C(=O)Nc2ncc(SCc3ncc(C(C)(C)C)o3)s2)CC1
CDK7/Cyclin H/MNAT1
  IC50: 457 nM

## C=CC(=O)Nc1ccc(C(=O)N2CCC[C@@H](Nc3ncc(SCc4ncc(C(C)(C)C)o4)s3)[C@H]2C)cc1
CDK9/cyclin T1
  IC50: 257 nM
CDK2/Cyclin A1
  IC50: 1420 nM

## C=CC(=O)Nc1ccc(C(=O)N2CCC[C@@H](Nc3ncc([S+]([O-])Cc4ncc(C(C)(C)C)o4)s3)C2)cc1 (some centres undefined)
CDK9/cyclin T1
  IC50: 9220 nM
CDK2/Cyclin A1
  IC50: > 10000 nM

## C=CC(=O)Nc1ccc(C(=O)N2CCC[C@@H](Nc3nc(C)c(SCc4ncc(C(C)(C)C)o4)s3)C2)cc1
CDK9/cyclin T1
  IC50: 2870 nM
CDK2/Cyclin A1
  IC50: > 10000 nM
